# Measured values taken from the supplement of paper PMC11417369.
# ± gives the standard deviation of the averaged measurements. This is one part of the list.
# Test system: PfAP2-EXP AP2 domain (GST-tagged)
# Experiment: gcPBM binding intensity (ln(normalized median fluorescence intensity)); higher = stronger DNA binding
# Method in brief: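 GST-tagged P. falciparum DNA-binding domains produced in E. coli were incubated for 1 h on an Agilent 4 × 180k array of primer-extended double-stranded 36-bp intergenic genomic probes with negative controls. Binding intensity is the highest Masliner-normalised natural-log median intensity across replicate spots of either probe orientation, with bound protein detected by Alexa488 anti-GST antibody at 488 nm.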
row,Sequence,gcPBM binding intensity (ln)
1,TAATATCATTTATATTGTACTATAACAAAATCTATA [XGTACX_site7700],8.28 ± 0.38
2,TATGTCAATTTTCATACATGCGCATAATCTTTATTT [TGCATGCA_site807],8.94 ± 0.25
3,ATAAATAAGATACGTACACACATATACAAAATATAC [CACACA_site3661],8.85 ± 0.24
4,TATAAAACCCTACTGTTTCTTCTTTATTGATATATT [TGCATGCA_negctrl_site285],8.63 ± 0.5
5,GAAAGAATAAAATAAACATGCAAATAAAACATAAAA [TGCATGCA_site471],9.27 ± 0.25
6,AAAGTTTTTATACATACACACCTATAAATTAAGTGC [CACACA_site7198],8.24 ± 0.34
7,AATTGTAAATTGGGCACTTATAAAAATGAACAAATA [CACACA_negctrl_site1583],8.72 ± 0.41
8,TCATAAAGAACAAAGTGTACCTATATATTACATACA [XGTACX_site7595],8.36 ± 0.37
9,AGGTAGTTCTGTATCACACACATATATATATATATA [CACACA_site2214],10.3 ± 0.47
10,ACTCTTAAAATGTATTGTACATAATTTTTACAAGGG [XGTACX_site6611],8.75 ± 0.47
11,TTTTTTTTTTTTACCTGTACATGTCAGCAAACTTTT [XGTACX_site1171],8.84 ± 0.61
12,CAAAAACGGAAGTGGTGTACCGATATTATATAAACA [XGTACX_site4962],8.89 ± 0.45
13,GGAGAATAGTGGAAAACACACACGTTTGAGATATGG [CACACA_site1168],8.78 ± 0.52
14,AACATTATAAGACACACACACACATATATATATATA [CACACA_site8259],10.1 ± 0.39
15,TTGTGTGTATGTATACATATATATATTGAGACGAAT [TGCATGCA_negctrl_site382],8.94 ± 0.49
16,TTTCCATTATGATATAGTACATAAATATATGTAATA [XGTACX_site6992],8.24 ± 0.16
17,ACATATAATAAAAAATGTACACACATAAGAAAATTT [XGTACX_site6153],8.57 ± 0.071
18,AAAAAAAATATATAAACACACATATTTATATACTCA [CACACA_site4984],8.11 ± 0.33
19,ACTATAAATATATAAATATATATATATATATATATA [GTGCAC_negctrl_site65],10.1 ± 0.28
20,CTAAATATATAAAAAAGTACAAAATAAATAATAATT [XGTACX_site2442],8.8 ± 0.53
21,TATTTCTGATTATTTTGTACACATTATATATAATGC [XGTACX_site6990],8.7 ± 0.37
22,TATATATTATGACCACCACACACCTATACACATAAC [CACACA_site8773],8.99 ± 0.44

row,Sequence,gcPBM binding intensity (ln)
1,AATATAAACAGACACACACACATATAGATTTATATT [CACACA_site7382],8.79 ± 0.4
2,TTTTAATGAAAACACACACACACATATATATATATA [CACACA_site5295],10.3 ± 0.11
3,GAAAATAGAAAAAGCACACATATATTTTGGAATGTA [CACACA_site551],8.55 ± 0.55
4,GGATAGATAATAGGGGGTACAAATATACATACATAT [XGTACX_site5089],10 ± 0.38
5,AAATGAATTATATAATATATATAAATAAATAAATAA [CACACA_negctrl_site359],8.46 ± 0.18
6,TATTATATAACAAAAAGTACTTATAAGAAATATATA [XGTACX_site5467],8.8 ± 0.4
7,TAATAAGTACCTTTTGCATGTGGCACGCTTTTTTTT [TGCATGCA_site573],8.9 ± 0.26
8,ATATTTCATCTAGCTACACACATATAATAAATTATT [CACACA_site4094],8.83 ± 0.42
9,AATGGAAAATTATTAACACACACATATAAATATATA [CACACA_site7899],8.5 ± 0.48
10,TGCCAATTTTTAAAAACATGCATTATATAGAATAAA [TGCATGCA_site872],8.6 ± 0.34
11,TTTTCAATATATAGAGCATGCGCATCCACAAATATG [TGCATGCA_site380],8.78 ± 0.35
12,TACAACAATTTTTGCACACACCAAAACATAAAATAA [CACACA_site4964],8.61 ± 0.41
13,ATTAAAAGGGGGTTTACATGTGTGTGTGTAATATGG [TGCATGCA_negctrl_site293],9.48 ± 0.65
14,TTATACATTTGTAAATAAATAGAACTGTATTTTTTT [TGCATGCA_negctrl_site397],8.04 ± 0.43
15,TATATACCGATATATACACACAAATACATAAGCTTC [CACACA_site6760],8.81 ± 0.4
16,AATAATCATTTTCATAGTACGTATGATTAGAAAAAA [XGTACX_site2589],8.51 ± 0.36
17,CAAAATATTTTTATAACACACATATTTATAACGTGC [CACACA_site6659],8.52 ± 0.22
18,TTTTGATTGTTATTCGTATATTATTTTATGATTATA [CACACA_negctrl_site1593],8.61 ± 0.45
19,AAGAAAAATATTCGTGTGCACAGAAGTATATGTGTG [GTGCAC_site9814],9.04 ± 0.28
20,TATTGTAAGAAAGGCACACAGATAAAATTATTATAT [CACACA_site2921],8.73 ± 0.46
21,ATAATTATATGGCTAGCACACAATAAATAATTATAT [CACACA_site3815],8.6 ± 0.46
22,ATATAAGTGTATCTAACACACAAATATATAAAAATG [CACACA_site1956],8.63 ± 0.33

row,Sequence,gcPBM binding intensity (ln)
1,ATCATCTTTATTCAAGTGCACTGAAAATTTTTTATA [GTGCAC_site9801],9.155 ± 0.021
2,ACAAGTTAAAATATTACACACATATAAATATTTATA [CACACA_site7467],8.33 ± 0.38
3,AGTAATAGTTTGTGCACACTCAAGTATATCATAGAT [CACACA_site6082],8.93 ± 0.085
4,ATTTTTGTAAATACATGTACATATATATGCATATCC [XGTACX_site6353],8.96 ± 0.35
5,TTTCGCTTTATTTATGCATGCAAATAAGTTGATATT [TGCATGCA_site724],10 ± 0.38
6,TACATATATACATACACACACATATAACCAATGTAG [CACACA_site2192],8.78 ± 0.34
7,AAATTAATGAAATATACACACATATATAAATATATA [CACACA_site4378],8.22 ± 0.33
8,AAATTAAAGATAAAAGTGCAAAATTATAAATTTATT,8.63 ± 0.26
9,AAATTTTTTAATTTTTCTCATTTAATTTAAAAATTA [GTGCAC_negctrl_site155],8.3 ± 0.44
10,TATATATAACATTGTACACACAAAGAAATAATATTA [CACACA_site3035],8.69 ± 0.39
11,ATAAGCATCTGGATATGTACTTATTCCTTTAAAGAT [XGTACX_site6225],8.54 ± 0.38
12,AAAAGTATATATTCAGTGCATAGTCTTTAAATATAA [GTGCAC_site9522],8.47 ± 0.2
13,TATTAAAAATATTATGTACACACATTTTAGATATTT [CACACA_site8549],8.3 ± 0.13
14,AACAAGTTGCATGGTGCACACATGTATTTATATCTA [CACACA_site5414],9.16 ± 0.2
15,ATAAAAAAGCAACATCATATGTTTTTATAGAGTATT [CACACA_negctrl_site745],8.32 ± 0.4
16,ATATAAATAAAAAAAAAAAAAAAAAAAAAAAAAAAA [CACACA_negctrl_site972],8.01 ± 0.43
17,TATGCTACATTATATGTACACACATATACATATATA [CACACA_site8199],8.55 ± 0.26
18,ATTTATACGTAATATGCATAAATATAAATATATATA [XGTACX_negctrl_site133],8.57 ± 0.31
19,TTTCTTTCTTTCTTTTTTTAAATATTTTTTAAAAAT [TGCATGCA_negctrl_site206],8.71 ± 0.49
20,TTAAAATTTTAAAAATTTTAATTTTACAAAAAAAAT [TGCATGCA_negctrl_site227],8.06 ± 0.33
21,AATAGTGTATAAATTTGTACATATAATTAAAAGGAA [XGTACX_site1143],8.84 ± 0.35
22,AACTTGTGTGGATATTGTACTAACAATATGTATGAT [XGTACX_site6302],8.86 ± 0.42

row,Sequence,gcPBM binding intensity (ln)
1,TTATTCGAACAAAGGAAAAAATATATTCAAAGGAAA [TGCATGCA_negctrl_site215],8.64 ± 0.75
2,ATTCATAAAAAGAGGTGTACATTAATATAATATATA [XGTACX_site8283],8.62 ± 0.35
3,AATAACTTTTTGAGATGTACATTTTTAATTCGTAGA [XGTACX_site8455],8.35 ± 0.4
4,TTTTTAACTAACATATCAATTCCATACGTCGTCAAA [CACACA_negctrl_site560],8.46 ± 0.52
5,GGATTTATTTTATATACACACATACCTATATTTATA [CACACA_site7084],8.48 ± 0.16
6,ACTTTAATAATTCACTTATTTTCTTATTATATTATT [CACACA_negctrl_site556],8.86 ± 0.28
7,TTTAAAAATTTGATCAAACACACGTTGCATAAATTA [CACACA_site3945],8.87 ± 0.47
8,ATAAATTGTAAAATGTGTACGCAGATATTGCGTATT [XGTACX_site332],8.55 ± 0.2
9,ATAATATAAACATACACACACACATATATATATATA [CACACA_site5591],10 ± 0.41
10,AAAACAAAAATATAAACACACATACATTGGTTTTCT [CACACA_site5405],8.34 ± 0.33
11,AGGATATGCAGACACACACACATATAGATTTATATA [CACACA_site7100],8.41 ± 0.48
12,TCTATATAATACCAATGTACATAGTTTTAAGCATAA [XGTACX_site1889],8.63 ± 0.47
13,TTTTGTCTTCAAATCAAATGTATATAAAAAAAATAC [CACACA_negctrl_site1717],8.47 ± 0.4
14,CTTTAATATTTTATTTCACACACATAAATGCCCCAA [CACACA_site8569],8.79 ± 0.47
15,AACAAGAAATAATCACGTACACATTATAATAACTAA [XGTACX_site8184],8.57 ± 0.54
16,AAAATTAAAATAGTAATACACACTTCATAGGAAATG [CACACA_site1762],8.36 ± 0.4
17,AAAAAAAAAAAAAAAAAAAAAAAAAAAAGTTAAAAA [TGCATGCA_negctrl_site74],9.105 ± 0.078
18,TGATATTATTATAAGGTGCTTAAAAATAAAGATAAT [GTGCAC_site9539],8.58 ± 0.18
19,AAAAAAAAAGATCACACACACATAAATATAAACAAA [CACACA_site5285],8.48 ± 0.26
20,TAAAATATTGTTATTACATGCAACCTTATGAAAAAT [TGCATGCA_site706],8.94 ± 0.17
21,ATATAAAATAATAAGGGTACAGGTCTCTGCGATGTT [XGTACX_site786],8.54 ± 0.46
